Laboratory results published in PMC4336329 (PLoS ONE, 2015).
In all, about 310,000 compounds went through this assay and about 2,200 (0.71%) showed an effect of 50% or more. Effects have a minus sign here. The list shows a part of the results.

target: human ether-à-go-go-related gene (hERG) potassium channel (human, UniProt Q12809); assay: primary screen, population patch clamp on CHO cells stably expressing hERG
Sequence (Q12809 whole entry, looked up): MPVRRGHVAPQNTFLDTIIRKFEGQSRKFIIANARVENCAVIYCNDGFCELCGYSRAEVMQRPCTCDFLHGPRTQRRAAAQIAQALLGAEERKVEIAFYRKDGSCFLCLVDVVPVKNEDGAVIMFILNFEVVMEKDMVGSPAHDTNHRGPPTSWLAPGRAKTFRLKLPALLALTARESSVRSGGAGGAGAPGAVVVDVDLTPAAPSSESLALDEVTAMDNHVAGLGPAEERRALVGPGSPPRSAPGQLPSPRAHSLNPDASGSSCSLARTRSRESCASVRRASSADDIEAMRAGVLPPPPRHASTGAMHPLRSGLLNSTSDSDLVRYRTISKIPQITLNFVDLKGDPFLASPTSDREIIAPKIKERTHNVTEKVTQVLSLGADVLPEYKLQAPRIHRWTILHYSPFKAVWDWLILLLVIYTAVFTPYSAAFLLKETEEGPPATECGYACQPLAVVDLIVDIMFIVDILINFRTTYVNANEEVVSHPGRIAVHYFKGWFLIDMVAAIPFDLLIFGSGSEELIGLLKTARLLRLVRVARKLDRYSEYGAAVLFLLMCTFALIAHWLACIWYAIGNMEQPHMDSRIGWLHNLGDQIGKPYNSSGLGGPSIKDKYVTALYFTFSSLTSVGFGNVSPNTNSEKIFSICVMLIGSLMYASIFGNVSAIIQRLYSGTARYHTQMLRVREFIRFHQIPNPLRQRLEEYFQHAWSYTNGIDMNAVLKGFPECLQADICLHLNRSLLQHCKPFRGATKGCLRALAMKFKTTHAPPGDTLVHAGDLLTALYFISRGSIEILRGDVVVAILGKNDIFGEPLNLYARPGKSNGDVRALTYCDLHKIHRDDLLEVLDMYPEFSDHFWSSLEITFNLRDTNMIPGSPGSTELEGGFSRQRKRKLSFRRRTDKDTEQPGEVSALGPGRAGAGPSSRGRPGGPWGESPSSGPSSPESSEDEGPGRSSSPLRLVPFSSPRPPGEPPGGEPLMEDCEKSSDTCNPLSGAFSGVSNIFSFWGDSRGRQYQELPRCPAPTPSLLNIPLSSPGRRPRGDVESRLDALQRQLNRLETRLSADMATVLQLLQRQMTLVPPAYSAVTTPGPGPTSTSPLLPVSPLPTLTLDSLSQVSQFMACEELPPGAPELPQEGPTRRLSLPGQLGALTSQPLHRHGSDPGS

Point of comparison: `CCn1cc(CCCC(=O)NCc2ccccc2OC)c2ccccc21`, “hERG current change (%, negative = inhibition) at 1uM” value 13.6%. Against it:
- CCOC(=O)N1CCC(NS(=O)(=O)c2ccc3c(c2)OCC(=O)N3)CC1 — lower, 13%
- CCN(CC)CCCNC(=O)c1ccc(Cl)c(S(=O)(=O)Nc2ccccc2OC)c1.Cl — lower, -6.4%
- Cc1ccc(N2C(=O)C3C=NNC3C2=O)cc1 (centres unmarked) — lower, 11.4%
- C/C(N)=C(/C#N)C(=O)COC(=O)CNS(=O)(=O)c1c(F)cccc1F — lower, 0.981%
- Cc1c([N+](=O)[O-])ccc(S(=O)(=O)N2CCC(C(N)=O)CC2)c1C — lower, 2.95%
- Fc1ccc2c(Cl)c(-c3nnc(-c4cccs4)o3)sc2c1 — higher, 18.4%
- CCCc1nc2oc3c(OCC)ncnc3c2c2c1COC(C)(C)C2 — lower, -3.2%
- CCOc1ccc(N2CC(NC(=O)c3cccc4ccccc34)CC2=O)cc1 (centres unmarked) — lower, 8.27%
- O=C(N/N=C/c1cc(Cl)cc([N+](=O)[O-])c1O)c1ccccc1NS(=O)(=O)c1cccs1 — lower, 10.9%
- COC(=O)c1cccn(CC(=O)c2ccc(Cl)cc2)c1=O — lower, 8.52%
- O=C(c1cccc(S(=O)(=O)N2CCc3ccccc32)c1)N1CCCC(C(F)(F)F)C1 (centres unmarked) — lower, -3.12%
- COC(=O)c1sccc1NC(=O)c1cc(-c2ccc(C)cc2)nc2ccccc12 — higher, 19.9%
- O=C(O)C1CCCCC1C(=O)NCCc1ccccc1 (centres unmarked) — lower, 8.23%
- CN(C(=O)c1ccc(NC(=O)Cc2ccc(NC(=O)C3CCN(C(=O)CCc4ccccc4)CC3)cc2)cc1)C1CC1 — lower, 10.6%
- COc1ccc2c(C(=O)c3ccc(C)cc3)n(CCC(N)=O)[n+]([O-])c2c1 — lower, 3.3%
- CC(=O)Oc1ccccc1N1C(=O)c2ccc(C(=O)O)cc2C1=O — lower, 12.5%
- CCOC(=O)Cn1c(=O)c2c(nc(Br)n2Cc2ccc(Cl)cc2)n(C)c1=O — lower, -13.7%
- CC(C)CC(=O)c1c[nH]c(C(=O)NCCCN2CCOCC2)c1 — lower, 12.3%
- O=C(C[n+]1cccc(NC(=O)c2ccccc2)c1)c1ccccc1.[Br-] — lower, -0.864%
- COc1cccc(NC(=O)C(=O)N/N=C/c2cc(C)n(-c3ccc(Cl)c(Cl)c3)c2C)c1 — lower, 9.02%
- Cc1cccc(C)c1NC(=O)C(c1ccccc1)N1CC(=O)Nc2ccccc21 (centres unmarked) — lower, 10.8%
- CC(C)(C)c1ccc(OC2=CS(=O)(=O)c3ccccc32)cc1 — lower, 8.13%
